# In all, about 150,000 compounds went through this assay and about 540 (0.36%) showed an effect of 50% or more. This is one part of the list.
# Tested on: Plasmodium falciparum
# Assay: Primary screen in NF54 nanoGlo assay, in single point, at 2uM, 72h; a lower Z score goes with more inhibition
# Type: functional, Erythrocyte
# Settings: timepoint 72 hour
Structure (SMILES),% Inhibition [%],Z score
O=C1NC2(CCCCC2)C(=O)N1CN1CCN(Cc2ccc3c(c2)CCO3)CC1,-7,1.29
CC(C)NC(=O)NC[C@H]1CCCC1(F)F,-14,1.34
CN(CCc1ccccn1)C(=O)c1cn2ccnc(-c3ccccc3)c2n1,30,-3.35
Cc1ccc(F)cc1C(=O)NC[C@H]1CCCN(CCn2cc(Cl)cn2)C1,-5,0.73
Cc1ccc(Cl)cc1N1CCN(C(=O)c2csc(-c3cccs3)n2)CC1,-23,2.87
COCC1(C(=O)N(C)CC2(CO)CCCC2)CCC1,-11,2.12
CCc1sc(N)nc1CC(=O)OC,8,-1.09
COC1(C)CC(NC(=O)CCc2cscn2)C1(C)C (centres undefined),-10,1.05
C[C@H](NC(=O)N1CCC(C)(C(=O)O)CC1)C1CCC(F)CC1 (some centres undefined),-8,0.69
Cc1csc(CCNc2cncc(C(N)=O)n2)n1,-2,0.35
CC(C)N[C@H]1CCCN(C(=O)c2cc3c(C4CC4)cccc3[nH]2)C1,18,-2.31
CCOC(=O)[C@@H]1CCCN(C(=O)c2cnn3cccc(OC)c23)C1,1,-0.12
OC[C@@]1(CCOc2ccccc2)CCCN(c2ncnc3sccc23)C1,-16,1.57
CN(C)C(C)(C)CNCc1c[nH]nc1-c1cccs1,7,-1.38
O=C(NCc1cc2n(n1)CCN(C1CCCCC1)C2)c1cccc(F)c1F,-7,1.17
O=C(COc1ccccc1)N1CC(Oc2cccnc2)C1,-8,1.56
Cc1ccc(CN(C(=O)NCc2ccco2)[C@H]2CCc3ccccc32)cc1,-5,0.82
CCN(CC)CCCNc1ccc(C2CCCC2)cc1,-7,1.32
C[C@@H](c1cccnc1)N(C)CCCc1ccc2c(c1)CCO2,-10,1.51
CCn1nc(-c2cc(F)cc(C(F)(F)F)c2)nc1N(C)C,-6,0.77
Cc1nc(CN(CC2CCN(Cc3ccccc3F)CC2)C[C@H]2CCCO2)c[nH]1,7,-0.93
C[C@H](NC(=O)Nc1cc(=O)n(C)cc1Br)C1CCC1,-8,1.3

Structure (SMILES),% Inhibition [%],Z score
O=C(NC[C@]1(O)CCc2ccccc2C1)C(=O)NC1CC1,-18,2.29
COCC(=O)N[C@H]1CCC12CCN(C(=O)CC1CCCC1)CC2,-14,1.83
Cc1cnc(CCNC(=O)Nc2ccnc(C(=O)N3CCN(C)CC3)c2)c(C)c1,10,-1.25
O=C(c1ccc2c(c1)OCO2)N1CC(OCC(F)F)C1,-3,0.4
COc1ccc(C(=O)Nc2cc(-c3cccc(C)c3)nn2-c2ccccc2)cc1,-2,0.24
O=C1CC2(CCN(C3CCc4ccccc4NC3=O)C2)CN1 (centres undefined),-1,0.16
CC(OC1CCCCCC1)C(=O)N1CCNCC1c1ccncc1 (centres undefined),5,-0.68
Cc1n[nH]cc1CNC[C@H](CC(C)C)N(C)C,-14,1.72
Cc1nn(C)cc1S(=O)(=O)n1c(=O)cc(C(F)(F)F)c2cn(C(C)C)nc21,31,-3.54
CCn1ccnc1C(=O)Nc1ccc(OC)nc1,35,-0.71
C=CCOC(=O)Nc1cc(Cl)c(Cl)cc1Cl,7,-0.83
CCc1nc(C2(c3ccccc3)CCC2)no1,-5,0.89
C/C=C(\C)CN1CC[C@@]2(CCCN(Cc3cc(OC)ccc3F)C2=O)C1,-4,0.42
CC[C@](C)(OC)c1nc(-c2ccc(C(F)(F)F)[nH]c2=O)no1,2,-0.18
CC(C)C[C@@H]1N=C(O)N(c2ccc3c(c2)OCO3)C1=O,-6,0.5
CC[C@H](NS(=O)(=O)c1cccc2nn(C)nc12)C1CC(O)C1 (some centres undefined),-6,1.02
Cc1cc(C)n(-c2cncc(NCC(C)(C)N3CCOCC3)n2)n1,-15,1.73
COCCC[C@H]1CCCCN1C(=O)c1cccc(O)n1,0,0.08
Cc1nc(-c2ccc(C(=O)NCCCN3CCCC[C@@H]3CO)cc2)nn1C,-9,1.76
CCN(C)c1ccc(C(N)=NOCc2ncc(C)o2)cc1,-4,0.72
Cc1nnc(NC(=O)c2cnn(Cc3ccccc3)c2)s1,-10,1.35
COc1ccccc1-c1nc(NCc2ccccc2)nc2nn(-c3cccc(F)c3)c(N)c12,-8,1.42

Structure (SMILES),% Inhibition [%],Z score
Cc1cnn(-c2cc3c(cc2C(N)=O)OCO3)c1,-10,1.13
C[C@H](NC(=O)Cc1cccc(F)c1)c1noc(Cc2ccccc2)n1,10,-1.68
Cc1c(C(=O)O)nn(-c2ccc(F)cc2)c1Oc1ccc(NC(=O)C2CCC2)cc1S(=O)(=O)NC(C)C,-6,0.67
CCNC(=O)[C@H]1CCN(Cc2cc(C#N)n(C)c2C)C1,-13,1.71
Cc1ccc(S(=O)(=O)Nc2nnc(-c3ccsc3)s2)s1,-13,2.18
Cc1ccc(-c2ncccc2C(=O)Nc2ccccc2F)s1,5,-0.66
CCC[C@@]1(C)C(=O)NCCN1C(=O)c1occc1C,-9,1.27
O=C(O)c1ccc(CN2C[C@H]3C[C@@H](O)CC[C@H]3C2)c(F)c1,-11,1.29
O=C(NCCc1noc([C@@H]2CCCO2)n1)c1ccnnc1,-12,1.74
Cc1cc(NC(=O)NC(C)(C)CN(C)Cc2ccccc2)nn1C,-9,1.61
O=c1[nH]nc(-c2ccccc2)c2c1CCCC2,-3,0.53
O=C1CC[C@](CCC(=O)N2CCN(c3ncc4ccccc4n3)CC2)(Cc2cccs2)N1,6,-0.75
CN(C)S(=O)(=O)CCNC(=O)C(=O)N1CCc2ccccc21,-14,1.38
Cn1cnc(CNC(=O)Nc2nc3c(s2)CC(C)(C)CC3)n1,-11,1.26
Cc1cc(C)n(CCCNC(=O)[C@@H]2CCCC[C@@H]2C(=O)Nc2ccc(Cl)cc2)n1,-6,0.81
CN([C@H]1CCCOC1)S(=O)(=O)c1ccc2c(c1)C(=O)CCC2,-6,0.58
CC(C)(C)c1ccc(-c2nc(N)ns2)cc1,-1,0.15
CC(C)CNC(=O)C[C@H](c1cccc(C(F)(F)F)c1)c1cn(Cc2ccccc2)c2ccccc12,-3,0.36
Nc1cccc(F)c1C(=O)C(F)(F)F,-3,0.42
NC(=NCC1CC1)NCCc1ccccc1,2,-0.32
CC1CN(C(=O)NCCOc2cccnc2)C1c1ccccc1 (centres undefined),-7,1.38
CN(c1ccc(Cl)c(C(=O)NC2CCCC2)c1)S(C)(=O)=O,26,-2.97

Structure (SMILES),% Inhibition [%],Z score
O=C(CCc1ccc2c(c1)OCCO2)Nc1ccc2c(c1)OCO2,-7,1.38
CCC(O)C1CCCCN1S(C)(=O)=O (centres undefined),-2,0.27
COc1ccc(Cn2c(C)cnc2[C@@H]2CCCN2C(=O)CC2CCCC2)cc1,-13,1.69
COC[C@@H]1CN(c2cnccn2)C[C@H]1C(=O)NCCc1ccccn1,-12,1.88
CCCn1c(=O)[nH]c2cc(-c3noc([C@H](C)Oc4ccccc4)n3)ccc21,-12,1.56
CCCn1c([C@H]2CCN(S(=O)(=O)c3cnn(CC)c3)C2)nc2cccnc21,-5,0.6
CCc1ncc(S(=O)(=O)N2CCCn3c(cc4ccccc43)C2)s1,10,-1.38
CC1CCCN(S(=O)(=O)CCS(C)(=O)=O)C1CN (centres undefined),1,-0.18
Cc1cc(C)cc(-c2nnc(NC(=O)N3CCC4OCCN(C)C4C3)s2)c1 (centres undefined),-10,0.93
O=C([C@@H]1COCC(=O)N1Cc1ccccc1)N1CCCc2ccccc21,4,-0.83
CCCCN1CCc2ccc(NC(=O)[C@H](C)NC(C)=O)cc21,-10,1.03
N#Cc1c2n(c(=O)n([C@H]3CCN(CC(F)(F)F)C3=O)c1=O)CCC2,0,0.04
Oc1cc(CC[C@H]2CCCCN2)cc(-c2cc(N3CCOCC3)ncn2)c1,7,-0.99
CC(C)CN1CCC(N2CC(Oc3cccc(C(=O)N4CCCC4)c3)C2)CC1,-4,0.5
CCOc1cc(C(F)(F)F)cc(N)n1,-14,1.2
Cc1nn(C(C)C)c(C)c1CC(=O)N1CCC2(CC1)C[C@@H](O)CCO2,1,-0.12
Cn1c(CCNC(=O)Nc2nncs2)nc2c(F)cccc21,-2,0.33
Cc1cc([C@@H]2CCCCCN2S(=O)(=O)c2ccc3c(c2)OCCO3)no1,-22,1.94
COc1ncc(C(=O)N2CCN(c3cccc(Cl)c3)CC2)cn1,-7,1.08
CC(NS(=O)(=O)c1ccc(NC(=O)Cc2ccc(Cl)cc2)cc1)C1CC2CCC1C2 (centres undefined),-1,0.21
c1cncc(CCNc2nc(C3CCCC3)nc3c2CCOCC3)c1,-6,1.03

# — ChEMBL document CHEMBL4888484, “Replenishing the malaria drug discovery pipeline: Screening and hit evaluation of the MMV Hit Generation Library 1 (HGL1) against asexual blood stage Plasmodium falciparum ,using a nano luciferase reporter read-out” (2022)
